# Test results reported in the supplement of paper PMC11417369.
# ± gives the standard deviation of the averaged measurements. This is one part of the list.
# System: PfAP2-LT AP2 domain (GST-tagged)
# Assay: gcPBM binding intensity (ln(normalized median fluorescence intensity)); higher = stronger DNA binding
# How it was run: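 Alexa488 anti-GST antibody, scanned at 488 nm, detected GST-tagged P. falciparum DNA-binding domains that had been expressed in E. coli and incubated for 1 h on an Agilent 4 × 180k array. The array carried primer-extended double-stranded 36-bp intergenic genomic probes and negative controls. Binding intensity is the highest Masliner-normalised natural-log median intensity across replicate spots of either orientation of each probe.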
row,Sequence,gcPBM binding intensity (ln)
1,GCTCTAATTAATATTTGTACACACATATTTAACCTA [XGTACX_site6808],9.2 ± 0.48
2,CCCTCAACGAATTTGAGTACACATTTTAAATGATAT [XGTACX_site7763],8.57 ± 0.4
3,ATCGCAAGATTAATATAAGGAGAAACGTTTATATAT [GTGCAC_negctrl_site267],8.82 ± 0.52
4,TTATAACATATAAACATGTTTCATCTTACGTATTTT [GTGCAC_negctrl_site694],8.98 ± 0.45
5,ATATTTAATTTGTATGGTACAGTACGATCTTTCTTT [XGTACX_site5533],8.97 ± 0.52
6,ATAAGAATATATAGAGTGCGTTGAAGAATTATAATA,8.89 ± 0.49
7,AAAAAACATTTGATCTGTACGCATAGACAATTATAT [XGTACX_site960],8.7 ± 0.36
8,TAAAAGAAAGCACATACACACACAAAAAAAAAAAAG [CACACA_site8159],9.77 ± 0.45
9,AATAATATGTTATCTCTTACACATATAAAAAATAAA [XGTACX_negctrl_site370],8.48 ± 0.43
10,AATTAAATGATTTATACATGCATATAAATATAAATA [TGCATGCA_site579],8.71 ± 0.43
11,TCTGTAAATATGTATACACACATATATGATCAATAT [CACACA_site3234],9.04 ± 0.4
12,AGTAGAAAAGGAACATGTACGAATTAAAAAAATAAT [XGTACX_site2347],9.03 ± 0.57
13,ACATATATATATATATATATATATATATTTATTTAT [CACACA_negctrl_site734],9.3 ± 0.14
14,TACACCATGATACATACACACAGACATATACACATT [CACACA_site6601],9.43 ± 0.28
15,CAATATATTTGATTTACACACTTACAATGTATTTAA [CACACA_site5632],8.79 ± 0.38
16,CGAAAAAATAAAAAAAAAATAAAATAAAATAAATAA [TGCATGCA_negctrl_site278],8.56 ± 0.59
17,ATAATCCTTAGACACACACACACACGAATAAATAAA [CACACA_site6364],9.93 ± 0.27
18,TTATACTGTACAAAAAGAATAGCAGTATAACAAAAA [CACACA_negctrl_site755],8.85 ± 0.44
19,ACAGGATTGGTTCAAACACACATATTATAGGACTAT [CACACA_site6455],9.02 ± 0.45

row,Sequence,gcPBM binding intensity (ln)
1,AAAAAAAAATCATATTGTACGTAAAAAAAAAAAAAA [XGTACX_site476],8.65 ± 0.47
2,AATATGTTTTGTTAGGTTGGTGTTGGTAGAATGTTT [CACACA_negctrl_site1563],9.17 ± 0.3
3,GTAAATAAATAAATAAATAAATATATATATATATAT [CACACA_negctrl_site1737],9.22 ± 0.23
4,AATAAAAAAAAATTCACACAAAGTTAGATTAACTAT [CACACA_site4224],8.53 ± 0.52
5,AATGATCAGATATACACACACACAAAAAAAAAAAAA [CACACA_site7806],9.72 ± 0.47
6,ATATATTTTTATGTAGTGCATTTAAATAATAAATGC,8.54 ± 0.33
7,ATTTTTTCCAATTCTTTACCTTAGAAAGGTGTTCAA [CACACA_negctrl_site1401],8.55 ± 0.53
8,ACCTCATAATATTTAACACACAAAATTATATGTATG [CACACA_site1704],9.11 ± 0.36
9,ATATATATATAATGAAGTACGAAAAAATAAGAAATG [XGTACX_site4001],8.89 ± 0.49
10,ATTCTAAATAAATGTACACACAAAAATAAATGTATA [CACACA_site1732],8.98 ± 0.45
11,TTTATATTTAAAAGGATGCACTACAAATTCTAAATA,8.37 ± 0.38
12,TATCCTTATATTTGCACACACACACCCTAAAATGAA [CACACA_site1029],9.71 ± 0.29
13,AAGACAAATATGAAGAGTACATTTATATAAAAATTA [XGTACX_site5142],8.73 ± 0.57
14,CTACAATATCTTTAAAGTACTTTTATATAACTACCA [XGTACX_site6119],8.62 ± 0.45
15,TTATATTAAACAAACACACACATATAAATATAAATA [CACACA_site7174],9.23 ± 0.3
16,AAAACAAACAGACACACACACATATTTATATTTATA [CACACA_site7681],9.79 ± 0.4
17,TTTTATTTTATTCAATTTTTACTTTTATAAAAATAT [GTGCAC_negctrl_site578],8.32 ± 0.52
18,AATATTAGGTTATGTAGTACATAACAATAATTATAC [XGTACX_site5733],8.98 ± 0.47
19,GTGTTGGGAAAAGGCATGCACTTTTTTTTTTTTTTT,8.86 ± 0.35

row,Sequence,gcPBM binding intensity (ln)
1,ATGTATATGCAAACATGTACATATATAAACATATAT [XGTACX_site4159],9.03 ± 0.3
2,AAGGAATATGTATATACACACAGGTACATATTTATA [CACACA_site6344],9.27 ± 0.45
3,ATAAAGAATATAAATACACACTTAAATATATATTAT [CACACA_site6071],8.85 ± 0.42
4,TAATTTTATATAAATTGTACAAAAATATTTTATTAA [XGTACX_site7166],8.18 ± 0.45
5,TGCAGGTGTTATTCACGTACGCATTTGATTAAAAAA [XGTACX_site7743],8.65 ± 0.42
6,TAAAATATACAAATTTGTACATATATATGTATGTAT [XGTACX_site1127],8.97 ± 0.4
7,ATAAAAACATAAAAATGTACATATATATATATATAT [XGTACX_site7165],9.73 ± 0.47
8,ATTAGAAAATAAAATAATAAATAAAATAAAAAAAAA [CACACA_negctrl_site409],8.47 ± 0.72
9,AAATATATATATAGTACATGCAGTAGATAATTTAAT [TGCATGCA_site299],9.24 ± 0.33
10,AATTCACATGTGAACTAAAAGAATATTATATATATA [CACACA_negctrl_site1632],8.77 ± 0.4
11,ATTAGGTATTTTTTTTGTACATATTATATAATGTGA [XGTACX_site3815],8.75 ± 0.4
12,CACAAAAATTTATACACACACATATAAAATATAGAT [CACACA_site6218],9.45 ± 0.38
13,TTCACTATACAAAGGTGTACTTAATTTTGTCCCATT [XGTACX_site7483],8.78 ± 0.5
14,AGTTATTACACACAAACATGCATTAATATCAAAAAA [TGCATGCA_site63],9.19 ± 0.46
15,AATATAAAATAGAAAAATGAAAAAAAAAAAAAGGGT [CACACA_negctrl_site1263],9.14 ± 0.62
16,TGTTTGATGGTACACGTACACACCTTGCAAATATTT [CACACA_site888],9.13 ± 0.4
17,TATATATATTTTAACACACACATATATATATTTATA [CACACA_site2765],9.01 ± 0.37
18,CAATAAATAATAAATACATGCAAGTATGAAGATATA [TGCATGCA_site859],9.12 ± 0.44
19,AGTGGGATTTTTAATTGTACATAAATAATATCATAA [XGTACX_site4163],8.45 ± 0.33
